The other results are listed elsewhere or left out. At the low end of the ranking the order means little.
Each sequence was assayed against T1, ETS1 (UniProt P14921) (assay: custom PBM). Settings: custom protein-binding microarray; buffer, salt, pH and temperature not stated; high values mean tight binding; double strand, one strand shown.
T1 sequence: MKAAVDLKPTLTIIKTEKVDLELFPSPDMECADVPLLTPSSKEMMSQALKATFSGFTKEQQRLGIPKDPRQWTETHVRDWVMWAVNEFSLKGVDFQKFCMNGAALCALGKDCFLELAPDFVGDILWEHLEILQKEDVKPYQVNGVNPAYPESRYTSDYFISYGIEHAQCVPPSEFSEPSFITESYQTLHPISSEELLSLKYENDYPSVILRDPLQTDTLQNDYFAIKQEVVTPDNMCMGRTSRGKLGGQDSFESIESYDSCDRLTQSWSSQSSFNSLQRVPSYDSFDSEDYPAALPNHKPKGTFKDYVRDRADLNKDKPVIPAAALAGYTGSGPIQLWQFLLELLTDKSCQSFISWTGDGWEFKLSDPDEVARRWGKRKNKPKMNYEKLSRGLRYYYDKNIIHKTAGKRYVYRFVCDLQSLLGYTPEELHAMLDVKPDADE

| Sequence | binding signal (log fluorescence intensity) |
| --- | --- |
| TGTAGGGTAAGGGAATGTAGATCACGTGAATGAAAAGTCTTGATTCGCTTGACGCTGCTG | 8.35 |
| TCTGCTGCGGTGCATACCCCACCGGATGTGACCCCGGTCTTGATTCGCTTGACGCTGCTG | 10.1 |
| CAGCATAGGACTTCTTCCCAGAAGCAATTGATAACCGTCTTGATTCGCTTGACGCTGCTG | 8.23 |
| CTGGGACTTGAGCCAACTCTGCCACGTGGGTCGTTTGTCTTGATTCGCTTGACGCTGCTG | 8.24 |
| CAGCATAGGACTTCTTCCCTGAAGCAATTGAGAACCGTCTTGATTCGCTTGACGCTGCTG | 8.15 |
| GATTAATTTGTGCCCTTATTCGCACGTGCCATAACAGTCTTGATTCGCTTGACGCTGCTG | 8.21 |
| GTATATAGGATCCCATCCAACACACGTGTTAAAATGGTCTTGATTCGCTTGACGCTGCTG | 8.29 |
| CTGGGAGTTGACCCAACTCTGCCACGTGGGTCGTTTGTCTTGATTCGCTTGACGCTGCTG | 8.26 |
| GGAAAAAGGCCCAGCGTAACACCGGAAGTGGGCTTAGTCTTGATTCGCTTGACGCTGCTG | 11.9 |
| CACAATTTTTACAGTAATGTAGCACGCGTTACTCCTGTCTTGATTCGCTTGACGCTGCTG | 8.29 |
| GGAAAAAGGCCCAGGGTAACACCGGAAGTGGGCATAGTCTTGATTCGCTTGACGCTGCTG | 12 |
| TCCGGCTACCAGCTCCACCCACTTCAGGGCTTGTAGGTCTTGATTCGCTTGACGCTGCTG | 8.11 |
| GTGTATAGGATCCCATCCAACACACGTGTTAAAATGGTCTTGATTCGCTTGACGCTGCTG | 8.35 |
| CTGGGACTTGACCCATCTCTGCCACGTGGGTCGTTTGTCTTGATTCGCTTGACGCTGCTG | 8.15 |
| GTGTATAGGATGCCATCCAACACACGTGTTAAAATGGTCTTGATTCGCTTGACGCTGCTG | 8.17 |
| TAAAGGTAAGACGGTTGTGGTAGTTCCGGGTATTAAGTCTTGATTCGCTTGACGCTGCTG | 8.54 |
| GATTAATTTCTGCCCTTCTTCGCACGTGCCATAACAGTCTTGATTCGCTTGACGCTGCTG | 8.17 |
| CTGGGACTTGACCCAACTCTGCCACGTGGGTCGGTTGTCTTGATTCGCTTGACGCTGCTG | 8.17 |
| GGAAAAAGGACCAGGGTAACACCGGAAGTGGGCTTAGTCTTGATTCGCTTGACGCTGCTG | 12.1 |
| GTGTATAGGATCCCATACAACACACGTGTTAAAATGGTCTTGATTCGCTTGACGCTGCTG | 8.21 |
| GAAAGGGAAGACGGTTGTGGTAGTTCCGGGTATTAAGTCTTGATTCGCTTGACGCTGCTG | 8.75 |
| CACAATTTTTACAGTAATTTAGCACGCGTAACTCCTGTCTTGATTCGCTTGACGCTGCTG | 8.22 |
| GGAAAAAGGCCCAGGGTAACACGGGAAGTGGGCTTAGTCTTGATTCGCTTGACGCTGCTG | 8.49 |
| GATTAATTTCTACCCTTATTCGCACGTGCCATAACAGTCTTGATTCGCTTGACGCTGCTG | 8.02 |
| GGAAAAAGGCCCAGGGTAACACCGGAAGTGGGCGTAGTCTTGATTCGCTTGACGCTGCTG | 11.9 |
| GCTGCGGCGGTGCATACCCCACCGGATGTGACCCCGGTCTTGATTCGCTTGACGCTGCTG | 10.9 |

| Sequence | binding signal (log fluorescence intensity) |
| --- | --- |
| GCTGCTGCGGTGCATGCCCCACCGGATGTGACCCCGGTCTTGATTCGCTTGACGCTGCTG | 10.3 |
| GCGGCTGCGGTGCATACCCCACCGGATGTGACCCCGGTCTTGATTCGCTTGACGCTGCTG | 10 |
| CACAATTTTTACAGTAATGTACCACGCGTAACTCCTGTCTTGATTCGCTTGACGCTGCTG | 8.17 |
| CAGCATAGGTCTTCTTCCCTGAAGCAATTGATAACCGTCTTGATTCGCTTGACGCTGCTG | 8.19 |
| GGAAAAAGGCCCAGGGTAGCACCGGAAGTGGGCTTAGTCTTGATTCGCTTGACGCTGCTG | 11.5 |
| CTGGGACTTGACCCAACTCTGCCACGTGAGTCGTTTGTCTTGATTCGCTTGACGCTGCTG | 8.12 |
| CGGAAGTGTCGCAAACGTCGGATATCCGGTTCTTCTGTCTTGATTCGCTTGACGCTGCTG | 12 |
| TCCGGCTACCAGCTCCCCCCACTTCAGGCCTTGTAGGTCTTGATTCGCTTGACGCTGCTG | 8.17 |
| CACAATTTTTACAATAATGTAGCACGCGTAACTCCTGTCTTGATTCGCTTGACGCTGCTG | 8.23 |
| GATTAATTTCTGCCCTTATTCGCACGTGCCATACCAGTCTTGATTCGCTTGACGCTGCTG | 8.33 |
| CACAATTTTTACAGTAATGTAGTACGCGTAACTCCTGTCTTGATTCGCTTGACGCTGCTG | 8.07 |
| CGGAAGCGTCGTAAACGTCGGATATCCGGTTCTTCTGTCTTGATTCGCTTGACGCTGCTG | 11.8 |
| GCCGCTGCGGTGCATACCCCACCGGATGTGACCCCGGTCTTGATTCGCTTGACGCTGCTG | 10.3 |
| TAAAGGGAAGACGGTTGTGGTAGTTCCGAGTATTAAGTCTTGATTCGCTTGACGCTGCTG | 8.29 |
| CAGCATAGGACTTCTTCACTGAAGCAATTGATAACCGTCTTGATTCGCTTGACGCTGCTG | 8.32 |
| GGAAAAAGGCCCAGGGTAACACCGGAAGTGGTCTTAGTCTTGATTCGCTTGACGCTGCTG | 11.7 |
| TAAAGGGAAGACGGTTGTGGTAGTTCCGGGGATTAAGTCTTGATTCGCTTGACGCTGCTG | 8.48 |
| CAGCATTGGACTTCTTCCCTGAAGCAATTGATAACCGTCTTGATTCGCTTGACGCTGCTG | 8.33 |
| GCTGCTGCGGTGCATACCCCACCGGATGTGACACCGGTCTTGATTCGCTTGACGCTGCTG | 10.3 |
| GGAAAAAGGCCCAGGGTAACACCGGAAGTGGGCTAAGTCTTGATTCGCTTGACGCTGCTG | 12.1 |
| CGGAAGTGTCGTAAACGTCGGGTATCCGGTTCTTCTGTCTTGATTCGCTTGACGCTGCTG | 10.5 |
| CACCATAGGACTTCTTCCCTGAAGCAATTGATAACCGTCTTGATTCGCTTGACGCTGCTG | 8.16 |
| CTGGGACTTGACCCAAGTCTGCCACGTGGGTCGTTTGTCTTGATTCGCTTGACGCTGCTG | 8.16 |
| GAAAAAAGGCCCAGGGTAACACCGGAAGTGGGCTTAGTCTTGATTCGCTTGACGCTGCTG | 12.1 |
| CTGGGACTTGACCCAACTCTGCCCCGTGGGTCGTTTGTCTTGATTCGCTTGACGCTGCTG | 8.29 |
| GTGTATATGATCCCATCCAACACACGTGTTAAAATGGTCTTGATTCGCTTGACGCTGCTG | 8.16 |

From PMC6602471
